To fix the notation:
B1: glmS ribozyme (parent)
chain: AUAAAAGCGCCAGAACUACAGAAAUGUAGUUGACGAGGAGGAGGUUUAUCGAAUUUUCGGCGGAUGCCUCCAAA

Common to all, as to conditions: with glucosamine-6-phosphate
Variants of B1 are the subject of series [1]. Kind of series: self-cleavage kobs at 640 uM GlcN6P; higher = faster cleavage; RNA array. In outline:
(§1)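 kcat and KM were obtained from weighted Michaelis–Menten fits across concentrations of kobs values. Those came from one- or two-exponential decay fits to per-tile medians normalised to baseline and to non-cleaving reference variants. The variants were barcoded ribozymes transcribed in situ by E. coli RNA polymerase on sequenced MiSeq chips and tracked through a hybridised Cy3 probe at 37 °C, with 40 μM to 10 mM glucosamine-6-phosphate in HEPES/KCl/Mg(OAc)2 buffer flowed in.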

In series [2] the parent is B1. Kind of series: self-cleavage kobs at 160 uM GlcN6P; higher = faster cleavage; RNA array. In outline: as §1
The variants in series [3] derive from B1. Kind of series: self-cleavage kobs at 2500 uM GlcN6P; higher = faster cleavage; RNA array. The method, boiled down: as §1
In series [4] the parent is B1. Kind of series: self-cleavage kobs at 10000 uM GlcN6P; higher = faster cleavage; RNA array. The method, boiled down: as §1

The results in this text go back to the supplement of paper PMC7125110.

± gives the standard error. Variants at the floor of the assay are shown more often than the library holds them.

Consider G13U G35C A64U, for which the “self-cleavage kobs at 640 uM GlcN6P” value in the series with glucosamine-6-phosphate [1] was less than 1e-05 s⁻¹. Also, the “self-cleavage kobs at 160 uM GlcN6P” value with glucosamine-6-phosphate [2] is less than 1e-05 s⁻¹. Further, in the series with glucosamine-6-phosphate [3], the “self-cleavage kobs at 2500 uM GlcN6P” value is less than 1e-05 s⁻¹.

Turning to C11U G35A U45G U55G, the “self-cleavage kobs at 640 uM GlcN6P” value in the series with glucosamine-6-phosphate [1] was less than 1e-05 s⁻¹.

Turning to A12U U54C G62U, the “self-cleavage kobs at 640 uM GlcN6P” value with glucosamine-6-phosphate [1] is less than 1e-05 s⁻¹.

For C11U G43U C67U, the “self-cleavage kobs at 640 uM GlcN6P” value with glucosamine-6-phosphate [1] was less than 1e-05 s⁻¹. Besides, the “self-cleavage kobs at 2500 uM GlcN6P” value with glucosamine-6-phosphate [3] is less than 1e-05 s⁻¹.

For the variant A14C U57C U65A, the “self-cleavage kobs at 640 uM GlcN6P” value with glucosamine-6-phosphate [1] is less than 1e-05 s⁻¹.

A12U G37C A42C: the “self-cleavage kobs at 640 uM GlcN6P” value with glucosamine-6-phosphate [1] is less than 1e-05 s⁻¹. Also, the “self-cleavage kobs at 10000 uM GlcN6P” value with glucosamine-6-phosphate [4] was less than 1e-05 s⁻¹.

In the case of A14C G41U, the “self-cleavage kobs at 640 uM GlcN6P” value with glucosamine-6-phosphate [1] came out at 0.000102 ± 1.6e-05 s⁻¹.

On to G13U G37A A53C G60U C67G, for which the “self-cleavage kobs at 640 uM GlcN6P” value in the series with glucosamine-6-phosphate [1] is less than 1e-05 s⁻¹. The “self-cleavage kobs at 160 uM GlcN6P” value with glucosamine-6-phosphate [2] is less than 1e-05 s⁻¹.

As for A14C C16A G43U C68U, in the series with glucosamine-6-phosphate [1], the “self-cleavage kobs at 640 uM GlcN6P” value is less than 1e-05 s⁻¹. Moreover, the “self-cleavage kobs at 2500 uM GlcN6P” value with glucosamine-6-phosphate [3] is less than 1e-05 s⁻¹.

Turning to A14C A42U G59U C67A, the “self-cleavage kobs at 640 uM GlcN6P” value with glucosamine-6-phosphate [1] was less than 1e-05 s⁻¹.

As for G13C A36U C71U, the “self-cleavage kobs at 640 uM GlcN6P” value in the series with glucosamine-6-phosphate [1] was less than 1e-05 s⁻¹. Besides, the “self-cleavage kobs at 2500 uM GlcN6P” value with glucosamine-6-phosphate [3] is less than 1e-05 s⁻¹.

As for A14C U57A U69A, the “self-cleavage kobs at 640 uM GlcN6P” value with glucosamine-6-phosphate [1] is 4.77e-05 ± 2.2e-05 s⁻¹.

A12U A39C A42U U45A U57A: the “self-cleavage kobs at 640 uM GlcN6P” value with glucosamine-6-phosphate [1] was less than 1e-05 s⁻¹. Further, the “self-cleavage kobs at 160 uM GlcN6P” value with glucosamine-6-phosphate [2] was less than 1e-05 s⁻¹.

On to G13U A42C G44C, for which the “self-cleavage kobs at 640 uM GlcN6P” value in the series with glucosamine-6-phosphate [1] was less than 1e-05 s⁻¹. Moreover, in the series with glucosamine-6-phosphate [3], the “self-cleavage kobs at 2500 uM GlcN6P” value was less than 1e-05 s⁻¹.

Take C11U A15G G35A C61A C71U: the “self-cleavage kobs at 640 uM GlcN6P” value in the series with glucosamine-6-phosphate [1] is less than 1e-05 s⁻¹. Further, the “self-cleavage kobs at 2500 uM GlcN6P” value with glucosamine-6-phosphate [3] was less than 1e-05 s⁻¹.

For the variant G13A C34G, the “self-cleavage kobs at 640 uM GlcN6P” value with glucosamine-6-phosphate [1] is less than 1e-05 s⁻¹. The “self-cleavage kobs at 2500 uM GlcN6P” value in the series with glucosamine-6-phosphate [3] was less than 1e-05 s⁻¹. Also, the “self-cleavage kobs at 10000 uM GlcN6P” value in the series with glucosamine-6-phosphate [4] was less than 1e-05 s⁻¹.

Consider C11U G38C G51U U65A, for which, in the series with glucosamine-6-phosphate [1], the “self-cleavage kobs at 640 uM GlcN6P” value is less than 1e-05 s⁻¹.

On to A12U G32C G40C, for which the “self-cleavage kobs at 640 uM GlcN6P” value with glucosamine-6-phosphate [1] was less than 1e-05 s⁻¹. In addition, in the series with glucosamine-6-phosphate [3], the “self-cleavage kobs at 2500 uM GlcN6P” value was less than 1e-05 s⁻¹.

For the variant A12G U30G G43C U46G, in the series with glucosamine-6-phosphate [1], the “self-cleavage kobs at 640 uM GlcN6P” value was less than 1e-05 s⁻¹.

Turning to A12G G37C G66U U69C, the “self-cleavage kobs at 640 uM GlcN6P” value with glucosamine-6-phosphate [1] is less than 1e-05 s⁻¹.

A12C G63C: in the series with glucosamine-6-phosphate [1], the “self-cleavage kobs at 640 uM GlcN6P” value is less than 1e-05 s⁻¹. In addition, the “self-cleavage kobs at 160 uM GlcN6P” value in the series with glucosamine-6-phosphate [2] is less than 1e-05 s⁻¹. Moreover, the “self-cleavage kobs at 2500 uM GlcN6P” value in the series with glucosamine-6-phosphate [3] is less than 1e-05 s⁻¹. For the same variant, the “self-cleavage kobs at 10000 uM GlcN6P” value with glucosamine-6-phosphate [4] was less than 1e-05 s⁻¹.

With A12U C58A G60U, the “self-cleavage kobs at 640 uM GlcN6P” value with glucosamine-6-phosphate [1] is less than 1e-05 s⁻¹. In addition, the “self-cleavage kobs at 160 uM GlcN6P” value with glucosamine-6-phosphate [2] was less than 1e-05 s⁻¹.

Take A12C C67A C68A: in the series with glucosamine-6-phosphate [1], the “self-cleavage kobs at 640 uM GlcN6P” value was 7.04e-05 ± 1.6e-05 s⁻¹. The “self-cleavage kobs at 2500 uM GlcN6P” value in the series with glucosamine-6-phosphate [3] was found to be 4.41e-05 ± 2.1e-05 s⁻¹.

As to G13U G35A, in the series with glucosamine-6-phosphate [1], the “self-cleavage kobs at 640 uM GlcN6P” value was less than 1e-05 s⁻¹. Also, the “self-cleavage kobs at 160 uM GlcN6P” value with glucosamine-6-phosphate [2] is less than 1e-05 s⁻¹.

As to G13C G29U G41U C68A C70A, in the series with glucosamine-6-phosphate [1], the “self-cleavage kobs at 640 uM GlcN6P” value was less than 1e-05 s⁻¹.

Turning to A14C G29A A42U U65G, in the series with glucosamine-6-phosphate [1], the “self-cleavage kobs at 640 uM GlcN6P” value is less than 1e-05 s⁻¹.

For G13U G29A, the “self-cleavage kobs at 640 uM GlcN6P” value with glucosamine-6-phosphate [1] was found to be 3.19e-05 ± 1.3e-05 s⁻¹. In addition, the “self-cleavage kobs at 2500 uM GlcN6P” value in the series with glucosamine-6-phosphate [3] came to 0.000121 ± 2.2e-05 s⁻¹. Further, the “self-cleavage kobs at 10000 uM GlcN6P” value in the series with glucosamine-6-phosphate [4] was found to be 0.000246 ± 4.2e-05 s⁻¹.

Turning to A12U C61A G62U, the “self-cleavage kobs at 640 uM GlcN6P” value with glucosamine-6-phosphate [1] is less than 1e-05 s⁻¹.

As to G13A C70U, the “self-cleavage kobs at 640 uM GlcN6P” value with glucosamine-6-phosphate [1] was 0.000154 ± 1.7e-05 s⁻¹. For the same variant, the “self-cleavage kobs at 160 uM GlcN6P” value with glucosamine-6-phosphate [2] amounted to 7.83e-05 ± 1.4e-05 s⁻¹. Besides, in the series with glucosamine-6-phosphate [3], the “self-cleavage kobs at 2500 uM GlcN6P” value is 0.000388 ± 6.1e-05 s⁻¹. The “self-cleavage kobs at 10000 uM GlcN6P” value in the series with glucosamine-6-phosphate [4] was 0.000676 ± 9.5e-05 s⁻¹.

As to A14C C16U G44U U69G, the “self-cleavage kobs at 640 uM GlcN6P” value with glucosamine-6-phosphate [1] was less than 1e-05 s⁻¹.

For C11U A33U G35C, the “self-cleavage kobs at 640 uM GlcN6P” value with glucosamine-6-phosphate [1] is less than 1e-05 s⁻¹. In addition, in the series with glucosamine-6-phosphate [2], the “self-cleavage kobs at 160 uM GlcN6P” value was less than 1e-05 s⁻¹. Moreover, in the series with glucosamine-6-phosphate [3], the “self-cleavage kobs at 2500 uM GlcN6P” value was less than 1e-05 s⁻¹.
